Hit rate of the full screen: of about 310,000 compounds, about 14,000 (4.5%) showed an effect of 50% or more. The effect is printed as a negative number. This is one part of the list.
target: human ether-à-go-go-related gene (hERG) potassium channel (human, UniProt Q12809); experiment: primary screen, population patch clamp on CHO cells stably expressing hERG
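Further: peak tail current of the secondary pulse compared with the same well before compound.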

Chain of human ether-à-go-go-related gene (hERG) potassium channel (Q12809 whole entry, looked up): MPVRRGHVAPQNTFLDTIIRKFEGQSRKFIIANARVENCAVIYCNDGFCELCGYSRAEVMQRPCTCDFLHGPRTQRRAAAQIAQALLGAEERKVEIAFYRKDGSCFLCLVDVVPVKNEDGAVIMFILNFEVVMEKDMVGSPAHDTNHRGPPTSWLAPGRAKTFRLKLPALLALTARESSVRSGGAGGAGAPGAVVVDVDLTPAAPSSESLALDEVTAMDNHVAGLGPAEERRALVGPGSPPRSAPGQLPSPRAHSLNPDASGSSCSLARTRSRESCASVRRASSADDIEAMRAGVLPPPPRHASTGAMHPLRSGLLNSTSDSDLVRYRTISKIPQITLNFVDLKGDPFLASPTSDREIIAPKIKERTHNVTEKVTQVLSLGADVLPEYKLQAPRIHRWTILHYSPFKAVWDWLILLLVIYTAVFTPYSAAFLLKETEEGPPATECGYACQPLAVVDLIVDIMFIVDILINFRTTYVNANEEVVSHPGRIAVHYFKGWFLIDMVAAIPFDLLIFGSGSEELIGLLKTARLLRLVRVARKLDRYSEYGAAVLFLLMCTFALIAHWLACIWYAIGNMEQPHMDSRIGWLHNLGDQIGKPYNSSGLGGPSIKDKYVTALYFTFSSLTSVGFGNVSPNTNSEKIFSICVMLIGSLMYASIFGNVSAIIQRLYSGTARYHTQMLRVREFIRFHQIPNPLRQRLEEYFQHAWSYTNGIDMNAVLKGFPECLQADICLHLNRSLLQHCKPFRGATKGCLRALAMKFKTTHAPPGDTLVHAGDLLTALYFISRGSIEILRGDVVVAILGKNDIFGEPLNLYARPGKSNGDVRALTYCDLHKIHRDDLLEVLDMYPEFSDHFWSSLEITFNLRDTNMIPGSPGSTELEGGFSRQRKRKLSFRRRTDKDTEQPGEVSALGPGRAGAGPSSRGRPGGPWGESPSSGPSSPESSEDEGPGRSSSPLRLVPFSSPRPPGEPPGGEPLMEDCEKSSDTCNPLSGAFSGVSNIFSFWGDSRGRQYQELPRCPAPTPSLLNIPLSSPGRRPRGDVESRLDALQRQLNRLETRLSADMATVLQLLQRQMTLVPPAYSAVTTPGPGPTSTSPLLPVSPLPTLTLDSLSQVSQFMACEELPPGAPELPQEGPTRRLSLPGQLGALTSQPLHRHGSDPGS

SMILES	hERG current change (%, negative = inhibition) at 10uM
Cc1ccc(S(=O)(=O)CC(=O)c2cc(C)c(OC(=O)N(C)C)c(C)c2)cc1	27.7%
O=C(N/N=C/c1ccc(OCc2ccccc2)cc1)c1ccco1	13.3%
COC(=O)CS(=O)(=O)c1ccc2c(c1)CC(=O)N2	-10.5%
CCC(C(=O)Nc1cc(OC)c(NC(=O)c2ccccc2)cc1OC)c1ccccc1 (stereo not shown)	14.1%
CC1(C)CC(=O)C2=C(C1)NC(=O)CC2c1ccc(N(CCC#N)CCC#N)cc1 (stereo not shown)	17.3%
CCSc1ccccc1C(=O)NCCc1ccccc1	40%
C/C=C(/C)C(=O)OC1c2c(ccc3ccc(=O)oc23)OC(C)(C)C1OC(C)=O (stereo not shown)	-71.8%
COC(=O)CCC(=O)c1oc2ccc(OC)cc2c1N	4.41%
Cc1ccc(N(NC(=O)C(O)(c2ccccc2)c2ccccc2)C(=O)CCl)cc1	8.33%
CN(C)c1cccc(C(=O)NCc2ccccc2)c1	-0.98%
Cc1c(C(=O)Nc2ccccc2)c2ccc(C(F)(F)F)cc2n1O	4.91%
COCC(C)NS(=O)(=O)c1ccc(NC(=O)c2ccccn2)cc1 (stereo not shown)	4.06%
Cc1ccc(NC(=O)Nc2cc(C)on2)cc1	12.8%
COCCNC(=O)c1ccccc1NC(=O)c1ccc(OC)c(OC)c1	-18.9%
Cc1ccc(S(=O)(=O)/N=C(/Nc2cccc(C(=O)O)c2)c2ccccc2)cc1	22.2%
CCOC(=O)N1CCN(c2nc(-c3ccc(OC)cc3)no2)CC1	5.03%
COc1cc2c(C(=O)N3CCN(C)CC3)c(CSc3ccccc3)n(C)c2cc1Br	-74%
Cc1ccc(S(=O)(=O)Nc2ccc(NC(=O)c3ccc(F)cc3)cc2)cc1	-42.7%
COc1ccc([C@H]2CC(=O)C=C(/C=C/c3ccc(Cl)cc3)C2)cc1	12.8%
O=C(c1ccco1)N1CCN(C(=O)c2ccccc2OCc2ccc(Cl)cc2)CC1	-75.9%
CCCCN(C)C(=O)c1coc(=O)c2ccccc12	7.25%
Cc1ccc(F)cc1NC(=O)N1CCN(C2c3ccccc3-c3ccccc32)CC1	11%
CCOC(=O)C1CCN(CC(=O)c2ccc(O)c(C)c2O)CC1	7.78%

SMILES	hERG current change (%, negative = inhibition) at 10uM
COC(=O)c1ccccc1NC(=O)CN(C)S(=O)(=O)c1ccc(OC)c(C)c1	-11.1%
COc1ccc(Cn2c(CCC(=O)Nc3ccccc3OC)nc3cccnc32)cc1	-3.79%
O=C1c2ccccc2C(=O)N1CCCn1ccnc1	17.1%
CC1CCC(NC(=O)C(NS(=O)(=O)c2cccc3nsnc23)C(C)C)CC1 (stereo not shown)	2.06%
Cc1cc(N)ccc1-n1nc2ccccc2n1	-0.0513%
CN1C(C(=O)NCc2ccco2)CC2Cn3c(nc4ccccc43)C21 (stereo not shown)	10.3%
O=C(CSc1ncccn1)NNC(=O)c1ccccc1	-4.48%
CCCCOC(=O)c1ccc(S(N)(=O)=O)o1	-1.6%
CN(Cc1cc([N+](=O)[O-])c2cccnc2c1O)C1CCCCC1	19.3%
COc1ccc(CNCC(O)(c2ccc(Cl)cc2)c2ccc(Cl)cc2)cc1OC	-30.9%
O=C(c1cc(C2CC2)nn1-c1ccccc1)N1CCN(S(=O)(=O)c2c(F)cccc2F)CC1	-9.33%
O=C(Nc1ccc(F)cc1)NC1CCN(Cc2nnnn2Cc2ccco2)CC1	-42.6%
CCOc1ccc(-c2noc(CCCC(N)=O)n2)cc1OC	3.53%
CCOc1ccc(N2C(=O)/C(=C/c3cc(OC)c(OC)c(OC)c3)N(CC(=O)OC)C2=S)cc1	2.58%
CCOc1cc(C#N)c(NC(=O)c2cccnc2Cl)cc1OCC	3.49%
O=C(Nc1ccccc1Cl)Oc1ccc2ccccc2c1	8%
O=S(=O)(c1ccc(F)cc1)N1CCCC(CO)C1 (stereo not shown)	-0.739%
CCn1c(SCC(=O)Nc2ccccc2)nc2ccccc2c1=O	12.8%
C=CCSc1nnc(Cc2cc(=O)[nH]c(=O)[nH]2)n1-c1cc(C)ccc1C	6.26%
CC(C)NC(=O)CN1C(=O)C(=O)c2ccccc21	-9.78%
Fc1ccc(OCCCn2ccnc2)cc1	26.7%
CN(C)c1ccc(NC(=O)c2ccc3c(c2)nnn3C)cc1	17.1%
CCN1CCCC1CNC(=O)c1cc2c(=O)n(C)c3ccccc3c2n1C (stereo not shown)	-18.5%
